{"source": "the supplement of paper PMC9446081", "note": "About 220 (0.56%) of roughly 39,000 compounds showed activity. Some of the results follow.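 Also: static incubation at 37 °C against the wild-type strain, values averaged over two biological replicates.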", "data": [{"system": "Escherichia coli K-12 BW25113", "assay": "relative growth (OD600 normalised to plate interquartile mean) (fraction); higher = less growth inhibition, active = 0.2 or less", "conditions": "50 µM; LB; incubation time: overnight (16-24 h)", "values": [{"smiles": "C[C@@H]1CN([C@H](C)CO)S(=O)(=O)c2ccc(C#Cc3cccc(F)c3)cc2O[C@H]1CN(C)S(=O)(=O)c1cn(C)cn1", "relative growth": "inactive: 1.01"}, {"smiles": "C[C@H]1CN([C@@H](C)CO)C(=O)c2cc(C3=CCCCC3)cnc2O[C@H]1CN(C)S(=O)(=O)c1cn(C)cn1", "relative growth": "inactive: 1.01"}, {"smiles": "CCS(=O)(=O)N1C[C@]2(CN(C2)S(=O)(=O)c2cn(cn2)C)c2c([nH]c3cc(ccc23)OC)[C@H]1CO", "relative growth": "inactive: 1.01"}, {"smiles": "CC1=C(/C=C/C(C)=C/C=C/C(C)=C/CO)C(C)(C)CCC1", "relative growth": "inactive: 0.992"}, {"smiles": "C[C@H](CO)N1C[C@H](C)[C@H](CN(C)S(=O)(=O)c2cccs2)Oc2ccc(NC(=O)Cc3ccccc3)cc2CC1=O", "relative growth": "inactive: 1.01"}, {"smiles": "COc1cccc(S(=O)(=O)N(C)C[C@@H]2Oc3ncc(C#CCN(C)C)cc3C(=O)N([C@H](C)CO)C[C@H]2C)c1", "relative growth": "inactive: 0.971"}, {"smiles": "CC(C)NC(=O)N(C)C[C@@H]1Oc2ccc(NS(=O)(=O)c3ccccc3)cc2C(=O)N([C@H](C)CO)C[C@@H]1C", "relative growth": "inactive: 0.873"}, {"smiles": "C[C@@H]1CN([C@H](C)CO)C(=O)Cc2cc(NS(=O)(=O)c3cn(C)cn3)ccc2O[C@H]1CN(C)C(=O)Nc1ccccc1", "relative growth": "inactive: 1.01"}, {"smiles": "C[C@@H]1CCCCO[C@H](CN(C)Cc2ccc3c(c2)OCO3)[C@@H](C)CN([C@H](C)CO)C(=O)c2cc(NC(=O)CCC(F)(F)F)ccc2O1", "relative growth": "inactive: 1"}, {"smiles": "CN1CCN(C(=O)C[C@@H]2CC[C@@H](NC(=O)c3ccc4c(c3)OCO4)[C@@H](CO)O2)CC1", "relative growth": "inactive: 0.966"}, {"smiles": "COc1ccc(S(=O)(=O)N(C)C[C@@H]2Oc3c(NS(=O)(=O)c4cccs4)cccc3C(=O)N([C@@H](C)CO)C[C@@H]2C)cc1", "relative growth": "inactive: 1.04"}, {"smiles": "CN(C)c1ccc(C(=C2C=CC(=[N+](C)C)C=C2)c2ccc(N(C)C)cc2)cc1.[Cl-]", "relative growth": "inactive: 1.03"}, {"smiles": "CC(C)NC(=O)N(C)C[C@H]1Oc2ccc(NS(=O)(=O)c3cn(C)cn3)cc2CC(=O)N([C@@H](C)CO)C[C@H]1C", "relative growth": "inactive: 0.983"}, {"smiles": "C[C@H]1CN([C@@H](C)CO)S(=O)(=O)c2ccc(-c3ccccc3F)cc2O[C@H]1CN(C)S(C)(=O)=O", "relative growth": "inactive: 0.999"}, {"smiles": "C[C@H](C[C@H](N)C(=O)O)C(=O)O", "relative growth": "inactive: 0.987"}, {"smiles": "Cc1noc(C)c1NC(=O)N(C)C[C@@H]1OCCCC[C@H](C)Oc2ccc(NC(=O)Nc3ccccc3)cc2C(=O)N([C@H](C)CO)C[C@@H]1C", "relative growth": "inactive: 0.988"}, {"smiles": "CN(C)c1ccc(O)c2c1C[C@@H]1C[C@@H]3[C@@H](N(C)C)C(=O)C(C(N)=O)=C(O)[C@]3(O)C(=O)[C@H]1C2=O", "relative growth": "active: 0.0589"}, {"smiles": "C[C@@H]1CN([C@@H](C)CO)C(=O)c2cc(NC(=O)Nc3cccc4ccccc34)ccc2O[C@@H]1CN(C)Cc1ccc2c(c1)OCO2", "relative growth": "inactive: 1.01"}, {"smiles": "C[C@H]1CN([C@@H](C)CO)C(=O)c2cc(NC(=O)Nc3cccc4ccccc34)ccc2O[C@H]1CN(C)C(=O)Nc1ccc2c(c1)OCO2", "relative growth": "inactive: 1.02"}, {"smiles": "C[C@H](CO)N1C[C@H](C)[C@H](CN(C)C(=O)c2cnccn2)Oc2ncc(C#CCC3CCCC3)cc2C1=O", "relative growth": "inactive: 1.03"}, {"smiles": "O=C(O)CCN1C(=O)c2ccncc2C1=O", "relative growth": "inactive: 0.998"}, {"smiles": "O=C(C[C@@H]1CC[C@H]2[C@@H](COC[C@H](O)CN2S(=O)(=O)c2ccccc2F)O1)NCc1ccccc1Cl", "relative growth": "inactive: 0.991"}, {"smiles": "CN1C(=O)c2cc(NC(=O)Cc3cccs3)ccc2OC[C@@H]2O[C@@H](CC(=O)NCCCN3CCOCC3)CC[C@H]21", "relative growth": "inactive: 0.981"}, {"smiles": "Cn1c(C(=O)N[C@H](CO)Cc2c[nH]c3ccccc23)cc(=O)n(C)c1=O", "relative growth": "inactive: 1.03"}, {"smiles": "O=S(=O)(O)c1cc(O)ccc1O", "relative growth": "inactive: 0.943"}, {"smiles": "C[C@@H]1CN([C@@H](C)CO)C(=O)c2cccc(NC(=O)c3nc4ccccc4s3)c2O[C@@H]1CN(C)Cc1ccc(Oc2ccccc2)cc1", "relative growth": "inactive: 1.04"}, {"smiles": "O=C(Nc1ccccc1)N1c2ccccc2CCc2ccccc21", "relative growth": "inactive: 1.03"}, {"smiles": "C[C@@H]1CN([C@H](C)CO)C(=O)c2cc(NC(=O)NC3CCCCC3)ccc2O[C@@H](C)CCCCO[C@@H]1CN(C)S(=O)(=O)c1ccc(F)cc1", "relative growth": "inactive: 1.01"}, {"smiles": "C[C@@H]1CN([C@@H](C)CO)C(=O)c2cc(NC(=O)CCN3CCOCC3)ccc2O[C@H]1CN(C)Cc1ccccc1", "relative growth": "inactive: 0.995"}, {"smiles": "C[C@@H]1CCCCO[C@@H](CN(C)C(=O)Nc2ccc3c(c2)OCO3)[C@H](C)CN([C@@H](C)CO)C(=O)c2cc(NC(=O)C3CCCCC3)ccc2O1", "relative growth": "inactive: 1.03"}, {"smiles": "CN(C)S(=O)(=O)c1ccc2c(c1)CCN2", "relative growth": "inactive: 0.975"}, {"smiles": "CC(C)CC#Cc1ccc2c(c1)O[C@H](CN(C)C(=O)c1ccccn1)[C@H](C)CN([C@H](C)CO)S2(=O)=O", "relative growth": "inactive: 0.972"}, {"smiles": "Cc1noc(C)c1S(=O)(=O)N(C)C[C@@H]1OCCCC[C@@H](C)Oc2ccc(NS(C)(=O)=O)cc2C(=O)N([C@@H](C)CO)C[C@@H]1C", "relative growth": "inactive: 0.979"}, {"smiles": "C[C@H]1CN([C@@H](C)CO)C(=O)c2cccc(NS(=O)(=O)c3ccc(F)cc3)c2O[C@H]1CN(C)Cc1ccc(Oc2ccccc2)cc1", "relative growth": "inactive: 1.03"}, {"smiles": "C[C@@H]1CCCCO[C@H](CN(C)Cc2ccncc2)[C@H](C)CN([C@@H](C)CO)C(=O)c2cc(NC(=O)NC3CCCCC3)ccc2O1", "relative growth": "inactive: 1"}, {"smiles": "C[C@@H]1CCCCO[C@@H](CN(C)C(=O)Nc2ccccc2)[C@H](C)CN([C@@H](C)CO)C(=O)c2cc(NC(=O)NC3CCCCC3)ccc2O1", "relative growth": "inactive: 1.02"}, {"smiles": "CCC(C)C(=O)OC1CCC=C2C=CC(C)C(CCC3CC(O)CC(=O)O3)C21", "note": "(stereo not drawn)", "relative growth": "inactive: 1.15"}, {"smiles": "Cc1noc(C)c1S(=O)(=O)Nc1ccc2c(c1)C(=O)N([C@@H](C)CO)C[C@@H](C)[C@@H](CN(C)C(=O)Nc1ccccc1)OCCCC[C@@H](C)O2", "relative growth": "inactive: 0.983"}, {"smiles": "CCSc1nnc2c(=O)[nH]c(=O)[nH]c2n1", "relative growth": "inactive: 1.01"}, {"smiles": "COc1ccc(S(=O)(=O)Nc2ccc3c(c2)CC(=O)N([C@H](C)CO)C[C@H](C)[C@@H](CN(C)Cc2ccc(Oc4ccccc4)cc2)O3)cc1", "relative growth": "inactive: 1.03"}, {"smiles": "C[C@@H]1CN([C@H](C)CO)C(=O)c2cccc(NC(=O)C3CC3)c2O[C@H]1CN(C)S(=O)(=O)c1ccc(F)cc1", "relative growth": "inactive: 0.995"}, {"smiles": "O=C(NO)c1ccc(C(=O)N/N=C/[C@@H](O)[C@H](O)[C@H](O)CO)cc1", "relative growth": "inactive: 1.01"}, {"smiles": "C[C@H](CO)N1C[C@H](C)[C@@H](CN(C)Cc2ccc(Oc3ccccc3)cc2)Oc2c(NS(=O)(=O)c3cccs3)cccc2C1=O", "relative growth": "inactive: 0.983"}, {"smiles": "OCC(O)C(O)C(O)C(O)C(O)CO", "note": "(stereo not drawn)", "relative growth": "inactive: 1.06"}, {"smiles": "O=S(=O)(NCC[C@H]1CC[C@H](NS(=O)(=O)c2ccccc2Cl)[C@@H](CO)O1)c1ccc(Cl)cc1", "relative growth": "inactive: 1.02"}, {"smiles": "O=C(CS(=O)(=O)c1cccc2nsnc12)N1CC(=O)N(CCc2ccccc2)C(=O)C1", "relative growth": "inactive: 1"}, {"smiles": "C[C@@H]1CCCCO[C@H](CN(C)C(=O)Nc2ccccc2)[C@@H](C)CN([C@H](C)CO)C(=O)c2cc(NS(=O)(=O)c3ccccc3)ccc2O1", "relative growth": "inactive: 1.04"}, {"smiles": "C=C(C(=O)O)[C@@H](CCCCCCOC(=O)C(=O)OCCCCCC[C@@H](C(=C)C(=O)O)C(=O)O)C(=O)O", "relative growth": "inactive: 1.02"}, {"smiles": "C[C@H]1CCCCO[C@H](CN(C)C(=O)Nc2cccc3ccccc23)[C@@H](C)CN([C@@H](C)CO)C(=O)c2cc(N(C)C)ccc2O1", "relative growth": "inactive: 0.996"}, {"smiles": "N#C[C@@H]1N[C@H](CO)[C@H]1c1ccccc1", "relative growth": "inactive: 0.964"}, {"smiles": "C[C@@H]1CN([C@H](C)CO)C(=O)c2cc(NC(=O)CCCN(C)C)ccc2O[C@@H]1CN(C)C(=O)Nc1ccc2c(c1)OCO2", "relative growth": "inactive: 0.993"}, {"smiles": "CCCCCCOC(=O)N=C(N)c1ccc(NCc2nc3cc(C(=O)N(CCC(=O)OCC)c4ccccn4)ccc3n2C)cc1.CS(=O)(=O)O", "relative growth": "inactive: 1.09"}, {"smiles": "CO[C@H]1CN(C)C(=O)c2ccc(NC(=O)Nc3cccc(Cl)c3)cc2OC[C@@H](C)N(C(=O)Nc2c(C)noc2C)C[C@@H]1C", "relative growth": "inactive: 0.972"}, {"smiles": "C[C@@H]1CCCCO[C@H](CN(C)S(=O)(=O)c2cccs2)[C@@H](C)CN([C@@H](C)CO)C(=O)c2cc(NS(C)(=O)=O)ccc2O1", "relative growth": "inactive: 0.891"}, {"smiles": "CN1CCN(C(=O)C[C@H]2CC[C@H]3[C@@H](COC[C@@H](O)CN3C(=O)Nc3cc(Cl)cc(Cl)c3)O2)CC1", "relative growth": "inactive: 0.957"}, {"smiles": "Cc1noc(C)c1S(=O)(=O)N(C)C[C@@H]1Oc2ccc(NC(=O)NC3CCCCC3)cc2CC(=O)N([C@H](C)CO)C[C@@H]1C", "relative growth": "inactive: 1.01"}, {"smiles": "C[C@H]1CN([C@@H](C)CO)C(=O)c2cc(Br)cnc2O[C@@H]1CN(C)S(C)(=O)=O", "relative growth": "inactive: 1.03"}, {"smiles": "C[C@@H]1CCCCO[C@@H](CN(C)C(=O)Cc2ccccc2)[C@H](C)CN([C@@H](C)CO)C(=O)c2cc(NC(=O)Cc3ccccc3)ccc2O1", "relative growth": "inactive: 1.02"}, {"smiles": "CC(C)OC(=O)[C@@H](C)Nc1n[nH]c(=O)[nH]c1=O", "relative growth": "inactive: 1.04"}, {"smiles": "C[C@@H]1CN([C@@H](C)CO)C(=O)c2cccc(NC(=O)Nc3ccc(C(F)(F)F)cc3)c2O[C@@H]1CN(C)Cc1ccc(C(=O)Nc2ccccc2N)cc1", "relative growth": "inactive: 1.07"}, {"smiles": "COc1ccc2c3c(n(c2c1)C)[C@@H](CO)N(C[C@]13CCN(CC1)C(=O)c1ccccn1)C(=O)c1ccccn1", "relative growth": "inactive: 0.987"}, {"smiles": "C=CC[n+]1ccccc1/C=N/O", "relative growth": "inactive: 0.96"}, {"smiles": "C[C@H]1CN([C@@H](C)CO)C(=O)c2cc(NC(=O)C3CC3)ccc2O[C@H]1CN(C)S(=O)(=O)c1ccccc1", "relative growth": "inactive: 0.978"}]}]}
